Results: the supplement of paper PMC4967469

Compound: COc1ncc(-c2ccc3nccc(-c4ccnnc4)c3c2)cc1NS(=O)(=O)c1ccc(F)cc1F [GSK2126458]
Experiment: Viability of human cancer cell lines after 72 h of drug (GDSC screen)
Settings: top dose inferred
Description: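 Human cancer cell lines in 384-well plates, medium with 10% serum, drug for 72 h over a 256-fold dose range (nine 2-fold or five 4-fold steps up to the top dose). Adherent lines were fixed and stained with the nucleic acid dye Syto60, suspension lines read with resazurin; signal relative to control wells, capped at 0 and 100%. One two-parameter sigmoid per drug and line, fitted in a mixed model over all curves with the slope shared within a line.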

Row | Cell Line | AUC | IC50
1 | OVCAR-5 (ovary, adherent, top dose 0.128 µM) | 0.676 | 27.6 nM
2 | OVCAR-8 (ovary, adherent, top dose 0.128 µM) | 0.681 | 24 nM
3 | OVISE (ovary, adherent, top dose 0.128 µM) | 0.441 | 5.23 nM
4 | OVK-18 (ovary, adherent, top dose 0.128 µM) | 0.823 | 86.3 nM
5 | OVKATE (ovary, adherent, top dose 0.128 µM) | 0.824 | > 128 nM
6 | OVMIU (ovary, adherent, top dose 0.128 µM) | 0.296 | 1.83 nM
7 | OVTOKO (ovary, adherent, top dose 0.128 µM) | 0.72 | 40.3 nM
8 | P12-ICHIKAWA (T-cell lymphoblastic leukaemia, suspension, top dose 1.024 µM) | 0.556 | 87.8 nM
9 | P30-OHK (lymphoblastic leukaemia, suspension, top dose 0.128 µM) | 0.196 | 1.24 nM
10 | P31-FUJ (acute myeloid leukaemia, suspension, top dose 0.128 µM) | 0.952 | > 128 nM
11 | P32-ISH (Burkitt lymphoma, suspension, top dose 0.128 µM) | 0.535 | 9.72 nM
12 | PA-1 (ovary, adherent, top dose 0.128 µM) | 0.274 | 2.17 nM
13 | PA-TU-8902 (pancreas, adherent, top dose 0.128 µM) | 0.491 | 7.51 nM
14 | PA-TU-8988T (pancreas, adherent, top dose 0.128 µM) | 0.761 | 45.8 nM
15 | PANC-02-03 (pancreas, adherent, top dose 0.128 µM) | 0.689 | 30.5 nM
16 | PANC-03-27 (pancreas, adherent, top dose 0.128 µM) | 0.557 | 11.3 nM
17 | PANC-04-03 (pancreas, adherent, top dose 0.128 µM) | 0.914 | > 128 nM
18 | PANC-08-13 (pancreas, adherent, top dose 0.128 µM) | 0.421 | 4.56 nM
19 | PANC-10-05 (pancreas, adherent, top dose 0.128 µM) | 0.481 | 7.01 nM
20 | PC-3 (prostate, adherent, top dose 0.128 µM) | 0.689 | 30.6 nM
21 | PC-3 [JPC-3] (lung adenocarcinoma, adherent, top dose 0.128 µM) | 0.751 | 54.8 nM
22 | PC-14 (lung adenocarcinoma, adherent, top dose 0.128 µM) | 0.81 | 58.6 nM
23 | PCI-4B (head and neck, adherent, top dose 0.128 µM) | 0.594 | 14.3 nM
24 | PCI-6A (head and neck, adherent, top dose 0.128 µM) | 0.748 | 40.4 nM
25 | PCI-15A (head and neck, adherent, top dose 0.128 µM) | 0.758 | 44.6 nM
26 | PCI-30 (head and neck, adherent, top dose 0.128 µM) | 0.942 | > 128 nM
27 | PCI-38 (head and neck, adherent, top dose 0.128 µM) | 0.921 | > 128 nM

Row | Cell Line | AUC | IC50
28 | PE/CA-PJ15 (head and neck, adherent, top dose 0.128 µM) | 0.853 | 113 nM
29 | PEO1 (ovary, adherent, top dose 0.128 µM) | 0.987 | > 128 nM
30 | PF-382 (T-cell lymphoblastic leukaemia, suspension, top dose 1.024 µM) | 0.25 | 13.8 nM
31 | PFSK-1 (medulloblastoma, adherent, top dose 0.128 µM) | 0.611 | 16.5 nM
32 | PL4 (pancreas, adherent, top dose 0.128 µM) | 0.891 | > 128 nM
33 | PL18 (pancreas, adherent, top dose 0.128 µM) | 0.799 | 60.7 nM
34 | PL-21 (acute myeloid leukaemia, suspension, top dose 0.128 µM) | 0.278 | 1.67 nM
35 | PSN1 (pancreas, adherent, top dose 0.128 µM) | 0.783 | 45 nM
36 | QGP-1 (pancreas, adherent, top dose 0.128 µM) | 0.709 | 45.3 nM
37 | QIMR-WIL (acute myeloid leukaemia, suspension, top dose 0.128 µM) | 0.277 | 1.91 nM
38 | RC-K8 (B-cell lymphoma, suspension, top dose 0.128 µM) | 0.973 | > 128 nM
39 | RCC10RGB (kidney, adherent, top dose 0.128 µM) | 0.878 | > 128 nM
40 | RCC-AB (kidney, adherent, top dose 0.128 µM) | 0.521 | 9.31 nM
41 | RCC-ER (kidney, adherent, top dose 0.128 µM) | 0.843 | 107 nM
42 | RCC-FG2 (kidney, adherent, top dose 0.128 µM) | 0.77 | 62.1 nM
43 | RCC-JF (kidney, adherent, top dose 0.128 µM) | 0.6 | 15.6 nM
44 | RCC-JW (kidney, adherent, top dose 0.128 µM) | 0.445 | 5.62 nM
45 | RCC-MF (kidney, adherent, top dose 0.128 µM) | 0.617 | 18.5 nM
46 | RCM-1 (large intestine, adherent, top dose 0.128 µM) | 0.847 | 126 nM
47 | RD (rhabdomyosarcoma, adherent, top dose 0.128 µM) | 0.645 | 21 nM
48 | REH (B-cell leukaemia, suspension, top dose 0.128 µM) | 0.309 | 2.39 nM
49 | RERF-GC-1B (stomach, adherent, top dose 0.128 µM) | 0.779 | 58.5 nM
50 | RERF-LC-KJ (lung adenocarcinoma, adherent, top dose 0.128 µM) | 0.84 | 92.2 nM
51 | RERF-LC-MS (lung adenocarcinoma, adherent, top dose 0.128 µM) | 0.822 | 77.4 nM
52 | RERF-LC-Sq1 (lung squamous cell carcinoma, adherent, top dose 0.128 µM) | 0.803 | 103 nM
53 | RF-48 (stomach, adherent, top dose 0.128 µM) | 0.618 | 17.6 nM
54 | RH-1 (rhabdomyosarcoma, adherent, top dose 0.128 µM) | 0.782 | 44.5 nM

Row | Cell Line | AUC | IC50
55 | RH-41 (rhabdomyosarcoma, adherent, top dose 0.128 µM) | 0.909 | 128 nM
56 | RKN (ovary, adherent, top dose 0.128 µM) | 0.477 | 6.9 nM
57 | RKO (large intestine, adherent, top dose 1.024 µM) | 0.444 | 45.6 nM
58 | RL95-2 (endometrium, adherent, top dose 0.128 µM) | 0.958 | > 128 nM
59 | RL (B-cell lymphoma, suspension, top dose 0.128 µM) | 0.528 | 9.48 nM
60 | RMG-I (ovary, adherent, top dose 0.128 µM) | 0.545 | 10.9 nM
61 | RO82-W-1 (thyroid, adherent, top dose 0.128 µM) | 0.973 | > 128 nM
62 | ROS-50 (B-cell leukaemia, suspension, top dose 0.128 µM) | 0.786 | 72.1 nM
63 | RPMI-2650 (head and neck, adherent, top dose 0.128 µM) | 0.766 | 50.9 nM
64 | RPMI-6666 (Hodgkin lymphoma, suspension, top dose 0.128 µM) | 0.357 | 2.96 nM
65 | RPMI-7951 (melanoma, adherent, top dose 0.128 µM) | 0.611 | 16 nM
66 | RPMI-8226 (myeloma, suspension, top dose 0.128 µM) | 0.625 | 16.8 nM
67 | RPMI-8402 (T-cell lymphoblastic leukaemia, suspension, top dose 1.024 µM) | 0.084 | < 4 nM
68 | RPMI-8866 (chronic myeloid leukaemia, suspension, top dose 0.128 µM) | 0.808 | 60.6 nM
69 | RS4-11 (leukaemia, suspension, top dose 0.128 µM) | 0.161 | 0.83 nM
70 | RT4 (bladder, adherent, top dose 0.128 µM) | 0.91 | > 128 nM
71 | RT-112 (bladder, adherent, top dose 0.128 µM) | 0.653 | 22 nM
72 | RVH-421 (melanoma, adherent, top dose 0.128 µM) | 0.791 | 82.5 nM
73 | RXF393 (kidney, adherent, top dose 0.128 µM) | 0.773 | 70.2 nM
74 | Raji (Burkitt lymphoma, suspension, top dose 0.128 µM) | 0.912 | > 128 nM
75 | Ramos-2G6-4C10 (Burkitt lymphoma, suspension, top dose 0.128 µM) | 0.484 | 7.27 nM
76 | SAS (head and neck, adherent, top dose 0.128 µM) | 0.748 | 45.5 nM
77 | SAT (head and neck, adherent, top dose 0.128 µM) | 0.735 | 55.5 nM
78 | SBC-1 (small cell lung carcinoma, suspension, top dose 0.128 µM) | 0.661 | 22 nM
79 | SBC-3 (small cell lung carcinoma, adherent, top dose 0.128 µM) | 0.267 | 1.87 nM

The IC50 comes from the fitted curve, where viability falls to half of the control; a fit beyond the top or the lowest dose is shown as a bound at that dose. AUC, from the same fit, is the share of area under the viability curve across the 256-fold dose range; it is 1 without any effect and falls as sensitivity rises. An inferred top dose was calculated from the reported fits.
